{"source": "PubChem BioAssay AID2675", "about": "(National Center for Advancing Translational Sciences (NCATS), 2010)", "note": "In all, about 280,000 compounds went through this assay and about 100 (0.036%) were called active. Inconclusive results, whose numbers are uncertain, are shown with a selection of clear calls. The call rests on the fitted dose curve; in most records, active means well fitted inhibition curve with a large enough effect in the signal ratio, with a control signal flat (not every such curve was filed as active); inconclusive means small, poorly fitted or top-dose-only effect, or effect the other way, or a change in a side signal; inactive means no such curve, though single readings can be large or run the other way; the % refers to the signal ratio. Potencies beside an inconclusive call are fits to weak or partial responses and may not hold up. A note “side channel” means that the fit belongs to a control or component signal, not to the main read-out. On the % scale 0 is the no-effect control and ±100 the full control effect; potency means the concentration at half of the fitted maximal effect; tags describe the fitted curve by direction and shape or compound fluorescence and quenching."}
{"target": "Muscleblind-like protein 1 (Homo sapiens) (UniProt Q9NR56)", "sequence (Q9NR56 whole entry, looked up)": "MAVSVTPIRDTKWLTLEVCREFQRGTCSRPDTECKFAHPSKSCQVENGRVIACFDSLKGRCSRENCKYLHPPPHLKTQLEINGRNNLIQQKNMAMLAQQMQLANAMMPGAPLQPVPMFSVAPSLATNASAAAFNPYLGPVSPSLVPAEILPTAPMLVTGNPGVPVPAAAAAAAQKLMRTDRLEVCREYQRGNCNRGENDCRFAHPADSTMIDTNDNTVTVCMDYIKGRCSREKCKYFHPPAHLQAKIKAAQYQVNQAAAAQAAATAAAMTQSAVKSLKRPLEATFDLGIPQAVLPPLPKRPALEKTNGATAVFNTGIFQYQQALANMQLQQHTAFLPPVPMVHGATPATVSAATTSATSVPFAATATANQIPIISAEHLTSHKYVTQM", "test": "qHTS Assay for Inhibitors of MBNL1-poly(CUG) RNA binding", "details": "TR-FRET MBNL1-His/biotin-(CUG)12 binding, 665/545 ratio; activity change, negative = inhibition: at 57.5 µM (top of the series)", "in_short": "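Compound titration spanned 92 nM–58 uM against the MBNL1-His/biotin-(CUG)12 complex. After 60 min at room temperature with 5 nM streptavidin-XL665 and 0.055 ng/ul terbium anti-His, ratiometric 665/545 nm emission (Ex 340 nm) normalized to controls.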"}
{"compound": "N#C/C(=C/C=C/c1ccccc1)C(=O)Nc1ccccc1", "Potency": "inactive"}
{"compound": "CCc1nnc(NC(=O)CCC(=O)N2CCN(Cc3ccc(Cl)cc3)CC2)s1", "Potency": "inactive"}
{"compound": "Cc1[nH]c2ccccc2c1C(=O)COC(=O)c1ccc([N+](=O)[O-])s1", "Potency": "inconclusive: 3.55 µM [quencher, side channel, partial curve]"}
{"compound": "CCOc1cc(/C=C2/NC(=O)N(CC(=O)OC)C2=O)ccc1O", "Potency": "inconclusive: 11.2 µM [quencher, side channel, partial curve]"}
{"compound": "CC1CCN(CCCCOc2ccc(C(=O)c3ccccc3)cc2)CC1", "Potency": "inactive"}
{"compound": "COc1ccc(/C=C(/C#N)C(=O)Nc2cccc([N+](=O)[O-])c2)cc1C(=O)O", "Potency": "inconclusive: 25.1 µM [quencher, side channel, partial curve]"}
{"compound": "Cc1cccc(N2CCN(C(=O)c3ccc4c(c3)NC(=O)C(CSCc3cccc(F)c3)N4)CC2C)c1", "note": "(configuration not stated)", "Potency": "inactive"}
{"compound": "COc1ccc(-c2[nH]c(-c3cccc(OC)c3)nc2SCC(=O)NCc2ccco2)cc1", "Potency": "inconclusive: 0.562 µM [fluorescent, side channel, full curve, poor fit]"}
{"compound": "CCC1(CC)Cc2ccccc2C2=C(C(=O)N3CCCCC3)C(=O)C(=O)N21", "Potency": "inconclusive: 14.1 µM [quencher, side channel, partial curve]"}
{"compound": "O=C(Nc1ccnn1C1CCN(CCCC2CCCC2)CC1)c1ccccc1Cl", "Potency": "inactive"}
{"compound": "COc1ccc(C(c2c(O)nc(SC)n(C)c2=O)c2c(O)nc(SC)n(C)c2=O)cc1O", "Potency": "inconclusive: 44.7 µM [fluorescent, side channel, partial curve, poor fit]"}
{"compound": "CC(=O)NC(CCS(C)(=O)=O)C(=O)Nc1cccc2ccccc12", "note": "(configuration not stated)", "Potency": "inconclusive: 5.01 µM [quencher, side channel, partial curve, poor fit]"}
{"compound": "COc1ccc2[nH]c3c(=O)n(CCCC(=O)NC4CCCCC4C)c(=S)[nH]c3c2c1", "note": "(configuration not stated)", "Potency": "inactive"}
{"compound": "CCNC(=O)/C(C#N)=C/c1c(N2CC(C)OC(C)C2)nc2ccccn2c1=O", "note": "(configuration not stated)", "Potency": "inconclusive: 28.2 µM [quencher, side channel, single point]"}
{"compound": "COC(=O)c1sc2nc(C)c([N+](=O)[O-])c(C)c2c1N", "Potency": "inconclusive: 39.8 µM [quencher, side channel, partial curve]"}
{"compound": "CC(=O)c1ccc(S(=O)(=O)Nc2cccc(-n3cnnn3)c2)cc1", "Potency": "inconclusive: 39.8 µM [quencher, side channel, single point]"}
{"compound": "Cc1c(C#N)c(O)[nH]c(=O)c1N=Nc1ccc(Br)cc1C(=O)O", "Potency": "inconclusive: 28.2 µM [quencher, side channel, single point]"}
{"compound": "CC(C)(C)c1ccc(-n2ncc3c2CCCC3NC(=O)CN2CCCCC2=O)cc1", "note": "(configuration not stated)", "Potency": "inactive"}
{"compound": "Cc1cc2n(n1)C(c1ccsc1)Nc1ccccc1-2", "note": "(configuration not stated)", "Potency": "inactive"}
{"compound": "CCCCOc1ccc(CSC(CC(=O)O)C(=O)O)cc1", "note": "(configuration not stated)", "Potency": "inactive"}
{"compound": "CCCn1nc(NC(=O)COC)c2cc3cc(C)ccc3nc21", "Potency": "inconclusive: 31.6 µM [quencher, side channel, partial curve]"}
{"compound": "COc1cc(/C=N/NC(=O)c2ccc(-n3cccc3)cc2)ccc1O", "Potency": "inconclusive: 20 µM [quencher, single point]"}
{"compound": "COc1ccc(NC(C)C(=O)N/N=C/c2ccc([N+](=O)[O-])s2)cc1", "note": "(configuration not stated)", "Potency": "inconclusive: 8.91 µM [quencher, side channel, partial curve]"}
{"compound": "CNC(=O)c1ccc(-c2ccc(OC)cc2)s1", "Potency": "inconclusive: 22.4 µM [quencher, side channel, single point]"}
{"compound": "O=C(Cc1ccccc1)N1CCC(c2ccccc2)C1", "note": "(configuration not stated)", "Potency": "inconclusive: 2000 µM [inhibitor, partial curve]"}
{"compound": "COc1cccc(CN2CCN(C(=O)Nc3ccc([N+](=O)[O-])cc3)CC2)c1", "Potency": "inconclusive: 25.1 µM [quencher, side channel, partial curve]"}
{"compound": "c1ccc(C2Nc3ccccc3C3OCCCC23)cc1", "note": "(configuration not stated)", "Potency": "inactive"}
{"compound": "O=C(Nn1c(-c2ccccc2)nc2ccccc2c1=O)c1cccs1", "Potency": "inconclusive: 5.01 µM [inhibitor, full curve, poor fit]"}
{"compound": "Nc1c(-c2ccccc2)cnn1-c1cccc([N+](=O)[O-])c1", "Potency": "inconclusive: 7.94 µM [quencher, side channel, partial curve]"}
{"compound": "O=[N+]([O-])c1ccc2c(c1)nc1n2CCN(c2ccccc2)C1", "Potency": "inconclusive: 6.31 µM [quencher, side channel, full curve]"}
{"compound": "Cc1nc2ccc([N+](=O)[O-])cc2c(=O)n1Cc1cccc(F)c1", "Potency": "inconclusive: 17.8 µM [quencher, side channel, partial curve]"}
{"compound": "NC(=S)N=Nc1c(O)[nH]c2ccc(F)cc12", "Potency": "inconclusive: 11.2 µM [quencher, side channel, partial curve]"}
{"compound": "COc1ccccc1CNC(=O)COc1ccc(S(=O)(=O)N2CCCC2)cc1", "Potency": "inconclusive: 7.94 µM [fluorescent, side channel, single point]"}
{"compound": "O=C(NCc1ccc2c(c1)OCO2)c1cc(-c2ccccc2Cl)on1", "Potency": "inactive"}
{"compound": "Cc1ccc(NC(=S)N(CCN(C)C)C(C)c2cccnc2)cc1", "note": "(configuration not stated)", "Potency": "inactive"}
{"compound": "O=C(N/C(=C/C=C/c1ccccc1)C(=O)N1CCOCC1)c1ccccc1Br", "Potency": "inconclusive: 31.6 µM [quencher, side channel, partial curve]"}
{"compound": "COc1ccccc1N1CCN(c2nc3ccccn3c(=O)c2C=O)CC1", "Potency": "inconclusive: 25.1 µM [quencher, side channel, single point]"}
{"compound": "Cc1cc(OC(C)C(=O)NCc2ccncc2)c2c(C)cc(=O)oc2c1", "note": "(configuration not stated)", "Potency": "inactive"}
{"compound": "Cc1c([N+](=O)[O-])cc(C(=O)N2CCOCC2)cc1[N+](=O)[O-]", "Potency": "inconclusive: 25.1 µM [quencher, side channel, single point]"}
{"compound": "C=CCn1c(=N)c(C(=O)NCCCOC)cc2c(=O)n3ccccc3nc21", "Potency": "inconclusive: 12.6 µM [quencher, side channel, partial curve]"}
{"compound": "CC(Sc1nnc(NCc2ccccc2)s1)C(=O)Nc1ccc2c(c1)C(=O)c1ccccc1C2=O", "note": "(configuration not stated)", "Potency": "inconclusive: 25.1 µM [quencher, side channel, partial curve]"}
{"compound": "CC(C)(C)c1ccc(C(=O)NC(=S)N2CCCC2)cc1", "Potency": "inactive"}
{"compound": "COCCN=c1scc(-c2ccccc2)n1/N=C/c1c[nH]c2ccccc12", "Potency": "inactive"}
{"compound": "Cc1ccc(/C=N/NC(=O)c2ccoc2C)s1", "Potency": "inconclusive: 39.8 µM [quencher, side channel, single point]"}
{"compound": "O=C(O)C1CCN(C(=O)CCN2C(=O)S/C(=C\\c3ccccc3)C2=O)CC1", "activity change, negative = inhibition": "inconclusive: 41.1% [activator]"}
{"compound": "CC(=O)Nc1cccc(NC(=O)CSc2nnnn2C(C)C)c1", "Potency": "inconclusive: 7.08 µM [quencher, side channel, single point]"}
{"compound": "O=C1c2cccc3cccc(c23)C(=O)N1OS(=O)(=O)c1ccccc1", "Potency": "inconclusive: 11.2 µM [quencher, side channel, partial curve, poor fit]"}
{"compound": "Fc1ccc(-c2cc(C(F)(F)F)n3ncnc3n2)cc1", "Potency": "inconclusive: 15.8 µM [quencher, side channel, partial curve]"}
{"compound": "O=C(NC(=S)Nc1ccc(S(=O)(=O)Nc2ncccn2)cc1)c1ccc(Br)cc1", "Potency": "inactive"}
{"compound": "CCOC(=O)c1nn(-c2ccc([N+](=O)[O-])cc2)cc1O", "Potency": "inconclusive: 11.2 µM [quencher, side channel, partial curve]"}
{"compound": "CC1(c2cccs2)CC(c2cccs2)=C(C#N)C(=O)N1", "note": "(configuration not stated)", "Potency": "inconclusive: 15.8 µM [quencher, side channel, partial curve]"}
{"compound": "Cc1cc(/C=N/NC(=O)CC2(C)OCCO2)c(C)n1-c1ccc(Cl)c(Cl)c1", "Potency": "inconclusive: 0.199 µM [fluorescent, side channel, full curve, poor fit]"}
{"compound": "COc1ccccc1N1C(=O)[C@@H]2C(C(=O)CN3C(=O)c4ccccc4C3=O)=NN[C@@H]2C1=O", "Potency": "inconclusive: 35.5 µM [quencher, side channel, single point]"}
{"compound": "Nc1c(C(=O)Nc2ccccc2)sc2nc(-c3ccco3)ccc12", "Potency": "inconclusive: 25.1 µM [quencher, side channel, partial curve]"}
{"compound": "CCN(CC)c1ccc2nc3c4ccccc4c(=O)cc-3oc2c1", "Potency": "inactive"}
{"compound": "CC(=O)N1CCN(c2ccc(OC[C@H]3CO[C@](Cn4ccnc4)(c4ccc(Cl)cc4Cl)O3)cc2)CC1", "Potency": "inactive"}
{"compound": "O=C(C1CC1)N1CCN(c2ccc(O)cc2)CC1", "Potency": "inconclusive: 35.5 µM [quencher, side channel, single point]"}
{"compound": "Fc1ccc(C2=CC(c3ccc(Br)o3)n3ncnc3N2)cc1", "note": "(configuration not stated)", "Potency": "inconclusive: 17.8 µM [quencher, side channel, single point]"}
{"compound": "O=C(COC(=O)c1ccc([N+](=O)[O-])s1)Nc1ccccc1", "Potency": "inconclusive: 5.01 µM [quencher, side channel, full curve]"}
{"compound": "NS(=O)(=O)c1ccc(NCCCn2ccnc2)c([N+](=O)[O-])c1", "Potency": "inconclusive: 11.2 µM [quencher, partial curve]"}
{"compound": "O=C(CCCNS(=O)(=O)c1cccc2nsnc12)NC1CCCCC1", "Potency": "inconclusive: 11.2 µM [quencher, side channel, partial curve]"}
{"compound": "CCOC(=O)NC(=O)CSc1nc2ccc([N+](=O)[O-])cc2[nH]1", "Potency": "inconclusive: 10 µM [quencher, side channel, partial curve]"}
